The supplement of paper PMC8728848
The list shows a part of the results.

Legend:
Test in all cases: glycan array binding signal (z-score within array); higher = stronger binding
Settings in all cases: glycan notation: IUPAC condensed, linker removed
[1] = target: Neu5Ac(a2-3)Gal(b1-4)GlcNAc(b1-2)Man(a1-3)[Neu5Ac(a2-6)Gal(b1-4)GlcNAc(b1-2)Man(a1-6)]Man(b1-4)GlcNAc(b1-4)GlcNAc
How it was run: (§1)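 Columns mapping to the same glycan were averaged after glycan names were converted to IUPAC-condensed notation. The data come from 3228 arrays in the Consortium for Functional Glycomics database, limited to those with an available protein sequence. Binding is reported as a within-array Z-score averaged across arrays of one protein sequence and across linkers.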

[2] = target: Neu5Ac(a2-3)Gal(b1-4)GlcNAc(b1-2)[Neu5Ac(a2-3)Gal(b1-4)GlcNAc(b1-4)]Man(a1-3)[GlcNAc(b1-4)][Neu5Ac(a2-3)Gal(b1-4)GlcNAc(b1-2)[Neu5Ac(a2-3)Gal(b1-4)GlcNAc(b1-6)]Man(a1-6)]Man(b1-4)GlcNAc(b1-4)GlcNAc
How it was run: as §1

[3] = target: Neu5Ac(a2-3)Gal(b1-4)GlcNAc(b1-2)[Neu5Ac(a2-3)Gal(b1-4)GlcNAc(b1-4)]Man(a1-3)[GlcNAc(b1-4)][Neu5Ac(a2-3)Gal(b1-4)GlcNAc(b1-4)Man(a1-6)]Man(b1-4)GlcNAc(b1-4)GlcNAc
How it was run: as §1

[4] = target: Neu5Ac(a2-3)Gal(b1-4)GlcNAc(b1-2)[Neu5Ac(a2-3)Gal(b1-4)GlcNAc(b1-6)]Man(a1-6)[Neu5Ac(a2-3)Gal(b1-4)GlcNAc(b1-2)Man(a1-3)][GlcNAc(b1-4)]Man(b1-4)GlcNAc(b1-4)GlcNAc
How it was run: as §1

[5] = target: Neu5Ac(a2-3)Gal(b1-4)GlcNAc(b1-3)Gal
How it was run: as §1

[6] = target: Neu5Ac(a2-3)Gal(b1-4)GlcNAc(b1-3)Gal(b1-3)GlcNAc
How it was run: as §1

[7] = target: Neu5Ac(a2-3)Gal(b1-4)GlcNAc(b1-3)Gal(b1-4)GlcNAc
How it was run: as §1

[8] = target: Neu5Ac(a2-3)Gal(b1-4)GlcNAc(b1-3)Gal(b1-4)GlcNAc(b1-2)Man(a1-3)[Neu5Ac(a2-3)Gal(b1-4)GlcNAc(b1-3)Gal(b1-4)GlcNAc(b1-2)Man(a1-6)]Man(b1-4)GlcNAc(b1-4)GlcNAc
How it was run: as §1

[9] = target: Neu5Ac(a2-3)Gal(b1-4)GlcNAc(b1-3)Gal(b1-4)GlcNAc(b1-3)Gal(b1-4)GlcNAc
How it was run: as §1

[10] = target: Neu5Ac(a2-3)Gal(b1-4)GlcNAc(b1-3)Gal(b1-4)GlcNAc(b1-3)Gal(b1-4)GlcNAc(b1-2)Man(a1-3)[Neu5Ac(a2-3)Gal(b1-4)GlcNAc(b1-3)Gal(b1-4)GlcNAc(b1-3)Gal(b1-4)GlcNAc(b1-2)Man(a1-6)]GalNAc
How it was run: as §1

[11] = target: Neu5Ac(a2-3)Gal(b1-4)GlcNAc(b1-3)Gal(b1-4)GlcNAc(b1-3)GalNAc
How it was run: as §1

[12] = target: Neu5Ac(a2-3)Gal(b1-4)GlcNAc(b1-3)Gal(b1-4)GlcNAc(b1-3)[Neu5Ac(a2-3)Gal(b1-4)GlcNAc(b1-3)Gal(b1-4)GlcNAc(b1-6)]GalNAc
How it was run: as §1

[13] = target: Neu5Ac(a2-3)Gal(b1-4)GlcNAc(b1-3)Gal(b1-4)GlcNAc(b1-6)[Gal(b1-3)]GalNAc
How it was run: as §1

[14] = target: Neu5Ac(a2-3)Gal(b1-4)GlcNAc(b1-3)Gal(b1-4)[Fuc(a1-3)]GlcNAc
How it was run: as §1

[15] = target: Neu5Ac(a2-3)Gal(b1-4)GlcNAc(b1-3)GalNAc
How it was run: as §1

[16] = target: Neu5Ac(a2-3)Gal(b1-4)GlcNAc(b1-3)[Neu5Ac(a2-3)Gal(b1-4)GlcNAc(b1-6)]GalNAc
How it was run: as §1

[17] = target: Neu5Ac(a2-3)Gal(b1-4)GlcNAc(b1-6)GalNAc
How it was run: as §1

[18] = target: Neu5Ac(a2-3)Gal(b1-4)GlcNAc(b1-6)[Gal(b1-3)]GalNAc
How it was run: as §1

[19] = target: Neu5Ac(a2-3)Gal(b1-4)GlcNAc(b1-6)[Neu5Ac(a2-3)Gal(b1-3)]GalNAc
How it was run: as §1

[20] = target: Neu5Ac(a2-3)Gal(b1-4)GlcNAc6S
How it was run: as §1

[21] = target: Neu5Ac(a2-3)Gal(b1-4)[Fuc(a1-3)]GlcNAc
How it was run: as §1

[22] = target: Neu5Ac(a2-3)Gal(b1-4)[Fuc(a1-3)]GlcNAc(b1-2)Man
How it was run: as §1

[23] = target: Neu5Ac(a2-3)Gal(b1-4)[Fuc(a1-3)]GlcNAc(b1-3)Gal
How it was run: as §1

[24] = target: Neu5Ac(a2-3)Gal(b1-4)[Fuc(a1-3)]GlcNAc(b1-3)Gal(b1-4)GlcNAc
How it was run: as §1

[25] = target: Neu5Ac(a2-3)Gal(b1-4)[Fuc(a1-3)]GlcNAc(b1-3)Gal(b1-4)[Fuc(a1-3)]GlcNAc(b1-3)Gal(b1-4)[Fuc(a1-3)]GlcNAc
How it was run: as §1

[26] = target: Neu5Ac(a2-3)Gal(b1-4)[Fuc(a1-3)]GlcNAc(b1-3)GalNAc
How it was run: as §1

[27] = target: Neu5Ac(a2-3)Gal(b1-4)[Fuc(a1-3)]GlcNAc(b1-6)[Gal(b1-3)]GalNAc
How it was run: as §1

[28] = target: Neu5Ac(a2-3)Gal(b1-4)[Fuc(a1-3)]GlcNAc(b1-6)[Neu5Ac(a2-3)Gal(b1-3)]GalNAc
How it was run: as §1

[29] = target: Neu5Ac(a2-3)Gal(b1-4)[Fuc(a1-3)]GlcNAc6S
How it was run: as §1

[30] = target: Neu5Ac(a2-3)Gal6S(b1-4)GlcNAc
How it was run: as §1

[31] = target: Neu5Ac(a2-3)Gal6S(b1-4)[Fuc(a1-3)]GlcNAc
How it was run: as §1

Neu5Ac(a2-3)GalNAc = target: Neu5Ac(a2-3)GalNAc
How it was run: as §1

[32] = target: Neu5Ac(a2-3)GalNAc(b1-4)GlcNAc
How it was run: as §1

[33] = target: Neu5Ac(a2-3)[GalNAc(b1-4)]Gal(b1-4)Glc
How it was run: as §1

[34] = target: Neu5Ac(a2-3)[GalNAc(b1-4)]Gal(b1-4)GlcNAc
How it was run: as §1

[35] = target: Neu5Ac(a2-3)[GalNAc(b1-4)]Gal(b1-4)GlcNAc(b1-3)GalNAc
How it was run: as §1

[36] = target: Neu5Ac(a2-3)[Neu5Ac(a2-6)]GalNAc
How it was run: as §1

Neu5Ac(a2-6)Gal = target: Neu5Ac(a2-6)Gal
How it was run: as §1

[37] = target: Neu5Ac(a2-6)Gal(b1-3)GlcNAc(b1-3)[Gal(b1-4)GlcNAc(b1-6)]Gal(b1-4)Glc
How it was run: as §1

Neu5Ac(a2-6)Gal(b1-4)Glc = target: Neu5Ac(a2-6)Gal(b1-4)Glc
How it was run: as §1

[38] = target: Neu5Ac(a2-6)Gal(b1-4)GlcNAc
How it was run: as §1

[39] = target: Neu5Ac(a2-6)Gal(b1-4)GlcNAc(b1-2)Man
How it was run: as §1

[40] = target: Neu5Ac(a2-6)Gal(b1-4)GlcNAc(b1-2)Man(a1-3)Man(b1-4)GlcNAc(b1-4)GlcNAc
How it was run: as §1

[41] = target: Neu5Ac(a2-6)Gal(b1-4)GlcNAc(b1-2)Man(a1-3)[Gal(b1-4)GlcNAc(b1-2)Man(a1-6)]Man(b1-4)GlcNAc(b1-4)GlcNAc
How it was run: as §1

[42] = target: Neu5Ac(a2-6)Gal(b1-4)GlcNAc(b1-2)Man(a1-3)[GlcNAc(b1-2)Man(a1-6)]Man(b1-4)GlcNAc(b1-4)GlcNAc
How it was run: as §1

B1: AFCNVH (Aspergillus fumigatus) (protein)
chain: MSLRGFHTTCDTIVLKDKHILSSRCKRPDGTYSFSEIDLNDCLGNNNGKFVWGGESFVDSASQVNLALEGGEGRPMLHAQLNDWHGSVQSASVNLGECIQNEAGGLEYMHC
[1]
  glycan array binding signal (z-score): -0.306
[2]
  glycan array binding signal (z-score): -0.351
[3]
  glycan array binding signal (z-score): -0.296
[4]
  glycan array binding signal (z-score): 0.322
[5]
  glycan array binding signal (z-score): -0.498
[6]
  glycan array binding signal (z-score): -0.447
[7]
  glycan array binding signal (z-score): -0.373
[8]
  glycan array binding signal (z-score): -1.1
[9]
  glycan array binding signal (z-score): 0.197
[10]
  glycan array binding signal (z-score): -0.328
[11]
  glycan array binding signal (z-score): -0.383
[12]
  glycan array binding signal (z-score): -0.306
[13]
  glycan array binding signal (z-score): -0.647
[14]
  glycan array binding signal (z-score): -0.398
[15]
  glycan array binding signal (z-score): -0.339
[16]
  glycan array binding signal (z-score): -0.369
[17]
  glycan array binding signal (z-score): -0.246
[18]
  glycan array binding signal (z-score): -0.369
[19]
  glycan array binding signal (z-score): -0.416
[20]
  glycan array binding signal (z-score): -0.307
[21]
  glycan array binding signal (z-score): -0.537
[22]
  glycan array binding signal (z-score): -0.566
[23]
  glycan array binding signal (z-score): -0.316
[24]
  glycan array binding signal (z-score): -0.058
[25]
  glycan array binding signal (z-score): -0.394
[26]
  glycan array binding signal (z-score): -0.187
[27]
  glycan array binding signal (z-score): -1.57
[28]
  glycan array binding signal (z-score): -0.276
[29]
  glycan array binding signal (z-score): -0.306
[30]
  glycan array binding signal (z-score): -0.279
[31]
  glycan array binding signal (z-score): -0.565
Neu5Ac(a2-3)GalNAc
  glycan array binding signal (z-score): -0.339
[32]
  glycan array binding signal (z-score): -0.24
[33]
  glycan array binding signal (z-score): -0.476
[34]
  glycan array binding signal (z-score): -0.462
[35]
  glycan array binding signal (z-score): -0.458
[36]
  glycan array binding signal (z-score): -0.677
Neu5Ac(a2-6)Gal
  glycan array binding signal (z-score): -0.55
[37]
  glycan array binding signal (z-score): -0.538
Neu5Ac(a2-6)Gal(b1-4)Glc
  glycan array binding signal (z-score): -0.576
[38]
  glycan array binding signal (z-score): -0.569
[39]
  glycan array binding signal (z-score): -0.324
[40]
  glycan array binding signal (z-score): 0.695
[41]
  glycan array binding signal (z-score): -0.299
[42]
  glycan array binding signal (z-score): -0.339
